For this assay, the system named is MDA-MB-468 breast. Briefly: growth of human tumour cells (NCI), 48 h.

Molecules are shown by their SMILES.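 Five compound concentrations were applied to cells in 96-well plates for 48 hours; endpoints were derived by simple linear interpolation of the resulting dose-response curve. Definition used: TGI = concentration required for complete inhibition of growth.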 For part of its entries the source gives two or more results. Only these are listed. There may be further records. The tests behind the records often covered other concentration ranges, not given here; a value can be the end of its range.

Consider `Cc1ccnc(Nc2ccc([N+](=O)[O-])c(NCCN3CCOCC3)n2)c1`, for which the TGI was 74.6 nM and 24.2 µM.

For the origin of these results see PubChem BioAssay (NCI).
